Values joined by “and” are separate entries in the source; they are usually repeats but may differ in a detail not shown here. Equal entries are not always repeated.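 Interpolation was linear, between the two tested concentrations surrounding the appropriate level; five concentrations were tested over 48 hours in 96-well plates. GI50: concentration for 50% inhibition of growth. TGI marks complete inhibition of growth.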
Test system: NCI-H322M lung
Test: NCI-60 cell line screen, 48 h

`O=C1c2cc3c(cc2NC(c2ccccc2F)C1O)OCO3` (stereo not given) and `O=c1[nH]c2cc(Cl)ccc2nc1/C(=N\Nc1ccccc1)C(O)c1ccc2c(c1)OCO2` (stereo not given) cannot be ordered by TGI: > 100 µM for the first, > 100 µM for the second.

`COC(=O)CN1CCN(c2cccc3c2CCCC3)CC1` and `COCN1C(=O)[C@@H]2CCCN2C(=O)c2ccc(N)cc21` cannot be ordered by TGI: > 100 µM for the first, > 100 µM for the second.

First: Cc1ccc(-c2nc(NCCOCCOCCN)nc(N3CCN(c4ccccn4)CC3)n2)cc1
Second: Clc1ccc2c(NCCNc3nc(N4CCOCC4)nc4ccccc34)ccnc2c1
The TGI of the first is 4.3-fold higher: 30.9 µM for the first, 7.18 µM for the second.

`CCOC(=O)[C@@]12C[C@](/C=C/OC)(O[Si](C)(C)C)[C@@]13c1cc(OC)c(OC)cc1CCN3C(=O)C2=O` and `CCOC(=O)C(O)(CC1=NC(C(=O)OC)(C(=O)OC)C(c2cccc(C=O)c2)O1)C(=O)OCC` (stereo not given) cannot be ordered by TGI: > 100 µM for the first, > 100 µM for the second.

`COC(=O)/C=C(C)/C=C\COC1CCCCO1` (stereo not given) and `C=C1C(=O)OC2CC(C)C(/C=C/C(C)=O)=CCC12` (stereo not given) cannot be ordered by TGI: > 100 µM for the first, > 100 µM for the second.

Going from `CCCCNc1ncnc2c1cnn2-c1ccccc1` to `COc1ccc2nc3ccccc3c(NCCNCCO)c2c1`, the TGI falls from > 100 µM to 2.02 µM.

Going from `Cc1nc2ccc(NCCN(C)C)c3c(=O)c4ccccc4n1c23` to `Cc1nc2c(C)ccc([N+](=O)[O-])c2c(NCCCN(C)C)c1C`, the TGI rises from 12.2 µM to > 100 µM.

Going from `O=C1C(Cl)=C(Nc2ccc(S(=O)(=O)c3ccc(NC4=C(Cl)C(=O)c5ccccc5C4=O)cc3)cc2)C(=O)c2ccccc21` to `O=c1c(-c2nc3ccccc3c3ccccc3c2=O)nc2ccccc2c2ccccc12`, the TGI rises from 14.8 µM to > 100 µM.

`COC(=O)CC1(O)C(=O)OCc2c1cc1n(c2=O)Cc2c-1nc1ccccc1c2OC` (stereo not given) and `COC(=O)Cc1cc(=O)n2c3ccccc3n(C)c2c1C#N` cannot be ordered by TGI: > 25.5 µM for the first, > 100 µM for the second.

First: Cc1cc(N2CCC(N3CCCC3)CC2)nc(/N=C(\N)Nc2ccc(Cl)c(Cl)c2)n1
Second: Cc1cc(Cl)ccc1N=C1NC(=O)C(CC(=O)Nc2cccc(Cl)c2)S1 (stereo not given)
The TGI of the first is lower: 3.75 µM for the first, > 100 µM for the second.

`C[C@]12CC[C@H]3[C@@H](CC=C4C[C@@H](O)CC[C@@]43C)[C@@H]1C/C(=C\c1cccnc1)[C@@H]2O` and `CC(=O)O[C@H]1[C@@H](N2CCOCC2)C[C@H]2[C@@H]3CC=C4C[C@@H](N5CCCC5)CC[C@]4(C)[C@H]3CC[C@@]21C` cannot be ordered by TGI: > 100 µM for the first, > 100 µM for the second.

`Cc1c2cc[n+](Cc3ccc(I)cc3)cc2c(C)c2c1[nH]c1ccccc12` and `CC(=O)c1cc2c(N)c(C(=O)Nc3cccc4ccccc34)sc2nc1C` cannot be ordered by TGI: > 19.6 µM for the first, > 50 µM for the second.

`CC[C@H](C)[C@H](NC(=O)[C@H]1CCCCN1C)C(=O)N(C)[C@H](CCc1nc(C(=O)N[C@@H](Cc2ccccc2)C[C@H](C)C(=O)O)cs1)C(C)C` and `CN(C(=O)Cc1ccccc1)n1cn[n+](CC(=O)OC(C)(C)C)c1` cannot be ordered by TGI: > 25 µM for the first, > 10 µM for the second.

Compared with `CCOC(=O)N1c2ccccc2C(C)=CC(C)C1C` (stereo not given), `COC(=O)c1ccccc1CC1Cc2c(C)ccc(C)c2C1=O` (stereo not given) is higher in TGI: 93.1 µM for the first, > 100 µM for the second.

`Nc1nc(Cl)c(CO)c(NCC2(CO)CCC2)n1` and `Nc1nc(Cl)c2ncn(CCCC(c3ccccc3)P(=O)(O)O)c2n1` (stereo not given) cannot be ordered by TGI: > 100 µM for the first, > 100 µM for the second.

Going from `O=c1ccc(N=Nc2ccccc2)ccc1O` to `COc1cccc(/C=C2\N=C(c3ccccc3)OC2=O)c1`, the TGI rises from 30 µM to > 100 µM.

`CSc1c(C(C)=O)c(O)n(-c2ccc(C)cc2)c(=O)c1C#N` and `Cc1c(C#N)c2nnn(-c3cccc(Cl)c3)c(=O)n2c1-c1ccccc1` cannot be ordered by TGI: > 100 µM for the first, > 100 µM for the second.

`CC1(C)CC(O)CC(C)(C)N1O` and `CCOP1(=O)CC(C)=C(Cl)C(OC)C1` (stereo not given) cannot be ordered by TGI: > 100 µM for the first, > 100 µM for the second.

`Brc1ccc2[nH]c3c(C4=NCCC4)nccc3c2c1` and `O=c1cc(-c2cccc(OC(F)(F)F)c2)[nH]c2ccc(N3CCCC3)cc12` cannot be ordered by TGI: > 67.3 µM for the first, > 100 µM for the second.

`Cc1ccc(S(=O)(=O)N/N=C2\C=CC3(CC2)C(=O)N(I)c2ccccc23)cc1` (stereo not given) and `CN(C)S(=O)(=O)c1ccc2[nH]c(O)c(C3=Nc4ccccc4C3=O)c2c1` cannot be ordered by TGI: > 100 µM for the first, > 100 µM for the second.

`O=C(O)CN1C(=O)c2ccc(NC(=O)C(=O)O)cc2S1(=O)=O` and `COC(=O)C(=O)C(C(=O)C(=O)Nc1ccc([N+](=O)[O-])cc1)c1nc2ccccc2[nH]c1=O` (stereo not given) cannot be ordered by TGI: > 100 µM for the first, > 100 µM for the second.

`CCSC[C@@H]1C[C@](O)(c2ccccc2)[C@@H](c2ccccc2)O1` and `C=CCC(N[C@@H](CO)c1ccccc1)c1ccc2ccccc2n1` (stereo not given in full) cannot be ordered by TGI: > 100 µM for the first, > 100 µM for the second.

`CC1(C)N=C(N)N=C(N)N1c1ccc(CCCC(=O)Nc2ccc(S(=O)(=O)F)cc2)cc1` and `CCOc1ccc(NC(=O)CC2SC(=Nc3ccc(C)cc3)NC2=O)cc1` (stereo not given) cannot be ordered by TGI: > 100 µM for the first, > 100 µM for the second.

`O=C1/C(=C/c2ccc(Cl)cc2)CCC1CNc1ccc(Cl)cc1` (stereo not given) and `O=C1CCC(c2ccccc2)=NN1c1nc2ccccc2s1` cannot be ordered by TGI: > 95 µM for the first, > 100 µM for the second.

Compared with `S=c1ssnc1-c1cc2ccccc2o1`, `Fc1ccccc1CN1COc2c(cc(Cl)c3cccnc23)C1` is 4.5-fold lower in TGI: 60 µM for the first, 13.3 µM for the second.

First: O=C(C[N+]12CN3CN(CN(C3)C1)C2)c1ccc(-c2ccccc2)cc1
Second: [Br][Pb]([c]1ccccc1)([c]1ccccc1)[c]1ccccc1
The TGI of the first is 76-fold higher: 54.3 µM for the first, 0.718 µM for the second.

`CCOC(=O)c1ccc(N(CCOS(C)(=O)=O)CCOS(C)(=O)=O)cc1` and `CC(=O)ON(OCc1ccc2ccccc2c1)C(C)=O` cannot be ordered by TGI: > 100 µM for the first, > 100 µM for the second.

`CCOc1ccc2nc(NC(=O)C(=O)C3C(=O)C(CC4C(=O)c5ccccc5C4=O)C(=O)CC3(C)C)sc2c1` (stereo not given) and `COc1ccc(/C=C/C(=N\NC(=O)c2ccccc2)c2sc(Nc3ccc([N+](=O)[O-])cc3)nc2C)cc1OC` cannot be ordered by TGI: > 100 µM for the first, > 100 µM for the second.

Compared with `FC(F)(F)c1ccccc1C1SCc2nc3ccccc3n21` (stereo not given), `CC(=O)c1csc2c1C(=O)c1ccccc1C2=O` is lower in TGI: > 100 µM for the first, 3.43 µM for the second.

First: CCCCCCCCCCCC/C=C\CC[C@@H](O)[C@H](O)CC[C@H](O)[C@@H]1CC[C@@H](CCCCCCCC2=C[C@H](C)OC2=O)O1
Second: CCCCCCCCCCCCCCCCCc1nc(Cl)nc(Cl)c1Cl
The TGI of the first is lower: 32 µM for the first, > 100 µM for the second.

Compared with `CCN(CC)CCOC(COc1cc(C)cc(C)c1)COc1cc(C)cc(C)c1`, `CC(C)c1ccc(O)c(Cc2cc(C(C)C)cc(Cc3cc(C(C)C)ccc3O)c2O)c1` is 3-fold lower in TGI: 10.4 µM for the first, 3.49 µM for the second.

`CO[C@@]12C[C@H](CNC(=O)c3ccc[nH]3)O[C@@H]1NC(=O)N2` and `COc1cccc(NC(=O)CC(=O)NN)c1` cannot be ordered by TGI: > 100 µM for the first, > 100 µM for the second.

`CC1NOC(=O)C1N=Nc1cccc(Cl)c1` (stereo not given) and `N#C/C(=C\c1ccc(O)cc1)C(N)=O` cannot be ordered by TGI: > 100 µM for the first, > 100 µM for the second.

`CCOC(=O)C(C)c1nc2cc(F)c(F)cc2[nH]c1=O` (stereo not given) and `COC1OC2COC(=O)c3cc(O)c(O)c(O)c3-c3c(cc(O)c(O)c3O)C(=O)OC2C(O)C1O` (stereo not given) cannot be ordered by TGI: > 100 µM for the first, > 100 µM for the second.

`S=c1ncc(-c2cncc(-c3cnc(=S)[nH]c3)n2)c[nH]1` and `N#C[S-].[La+3].c1ccc(-c2ccccn2)nc1.c1ccc(-c2ccccn2)nc1.c1ccc(-c2ccccn2)nc1` cannot be ordered by TGI: > 100 µM for the first, > 100 µM for the second.

`CC(C)(C)OC(=O)Cn1ncn(NC(=O)Cc2ccccc2)c1=S` and `O=C1NC(N2CCCC(CO)C2)=N/C1=C\c1cccs1` (stereo not given) cannot be ordered by TGI: > 10 µM for the first, > 100 µM for the second.

Compared with `Cc1ccc(-c2nc(NCCOCCOCCN)nc(N3CCN(c4ccccn4)CC3)n2)cc1`, `Clc1ccc2c(NCCNc3nc(N4CCOCC4)nc4ccccc34)ccnc2c1` is 6.8-fold lower in GI50: 15.7 µM for the first, 2.31 µM for the second.

Compared with `CCCCNc1ncnc2c1cnn2-c1ccccc1`, `COc1ccc2nc3ccccc3c(NCCNCCO)c2c1` is 13-fold lower in GI50: 6.09 µM for the first, 0.459 µM for the second.

Compared with `O=C1C(Cl)=C(Nc2ccc(S(=O)(=O)c3ccc(NC4=C(Cl)C(=O)c5ccccc5C4=O)cc3)cc2)C(=O)c2ccccc21`, `[Br][Pb]([c]1ccccc1)([c]1ccccc1)[c]1ccccc1` is 18-fold lower in GI50: 4.27 µM for the first, 0.242 µM for the second.

First: Cc1cc(N2CCC(N3CCCC3)CC2)nc(/N=C(\N)Nc2ccc(Cl)c(Cl)c2)n1
Second: CC(=O)c1cc2c(N)c(C(=O)Nc3cccc4ccccc34)sc2nc1C
The GI50 of the first is 2-fold lower: 1.89 µM for the first, 3.72 µM for the second.

Compared with `CC[C@H](C)[C@H](NC(=O)[C@H]1CCCCN1C)C(=O)N(C)[C@H](CCc1nc(C(=O)N[C@@H](Cc2ccccc2)C[C@H](C)C(=O)O)cs1)C(C)C`, `CC(=O)ON(OCc1ccc2ccccc2c1)C(C)=O` is higher in GI50: 0.395 µM for the first, > 100 µM for the second.

`CCSC[C@@H]1C[C@](O)(c2ccccc2)[C@@H](c2ccccc2)O1` and `C=CCC(N[C@@H](CO)c1ccccc1)c1ccc2ccccc2n1` (stereo not given in full) cannot be ordered by GI50: > 100 µM for the first, > 100 µM for the second.

`CC1(C)N=C(N)N=C(N)N1c1ccc(CCCC(=O)Nc2ccc(S(=O)(=O)F)cc2)cc1` and `N#C[S-].[La+3].c1ccc(-c2ccccn2)nc1.c1ccc(-c2ccccn2)nc1.c1ccc(-c2ccccn2)nc1` are within 1.5-fold of each other in GI50: 29.9 µM for the first, 36.9 µM for the second.

First: S=c1ssnc1-c1cc2ccccc2o1
Second: CCN(CC)CCOC(COc1cc(C)cc(C)c1)COc1cc(C)cc(C)c1
The GI50 of the first is 11-fold higher: 25.1 µM for the first, 2.26 µM for the second.

With `C/C=C/C=C/c1cc2cc3c(c(O)c2c(=O)[nH]1)C1(CC3)C(O)=c2c(=O)c3c(=O)cc(OC)c(=O)c=3c(=O)c2=C1O` (stereo not given) the GI50 was 0.55 µM and 4.74 µM.

For `C/C=C/C=C/c1cc2cc3c(c(O)c2c(=O)[nH]1)C1(CC3)C(O)=c2c(=O)c3c(=O)cc(OC)c(=O)c=3c(=O)c2=C1O` (stereo not given), the TGI was 15.7 µM and 22.2 µM.

From PubChem BioAssay (NCI)
